According to PubChem BioAssay (NCI):
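Growth conditions: 96-well plates. Treatment: test compound, 48 hours, 5 concentrations. Analysis: linear interpolation between bracketing concentrations; unreached endpoints set to highest concentration. The concentration for full growth arrest is given as TGI.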 For part of its entries the source gives two or more results. Only these are listed. The source may hold further records. Records of one sample usually come from different ranges of test concentrations, which the source does not state; a value can be the end of its range.

Assays:
Assay in all cases: DTP human tumour cell line panel, 48 h
[1] = tested on: KM12 colon
[2] = tested on: SF-295 CNS
[3] = tested on: KM20L2 colon
[4] = tested on: OVCAR-3 ovarian
[5] = tested on: NCI-H460 lung
[6] = tested on: A498 renal
[7] = tested on: NCI-H226 lung
[8] = tested on: MALME-3M melanoma
[9] = tested on: OVCAR-8 ovarian
[10] = tested on: NCI/ADR-RES ovarian
[11] = tested on: HCC-2998 colon
[12] = tested on: HCT-15 colon
[13] = tested on: HCT-116 colon

Compound	TGI [1]	TGI [2]	TGI [3]	TGI [4]	TGI [5]	TGI [6]	TGI [7]	TGI [8]	TGI [9]	TGI [10]	TGI [11]	TGI [12]	TGI [13]
CCOC(=O)Oc1c(OC)cc(C(=O)NC2CCc3cc(OC)c(OC)c(OC)c3-c3ccc(SC)c(=O)cc32)cc1OC (centres undefined)	208 nM and 8.64 µM	671 nM and 46 µM	284 nM and 24.3 nM	74.3 nM and < 7 nM	904 nM and 14.2 µM	–	–	–	–	–	–	–	–
COC(=O)c1cc2c(cc1O)[C@@H](NC(C)=O)CCc1cc(OC)c(OC)c(OC)c1-2	98 nM and > 100 µM	–	–	–	–	8.34 µM and > 100 µM	82.9 nM and > 100 µM	395 nM and > 100 µM	195 nM and > 100 µM	282 nM and > 100 µM	400 nM and > 100 µM	544 nM and > 100 µM	1.26 µM and > 100 µM
